Results on 102 sequences are retold here after a collection of fitness landscapes (doi:10.1038/s41467-024-54723-y).

Over roughly 18,000 sequences, “TetR repression strength (sort-seq, GFP reporter)” has its median near 0.23; the highest 2% begin near 0.68. Some of the results follow.

This assay deals with TetR (class B, Tn10) (UniProt P04483). In words: TetR repression strength (sort-seq, GFP reporter) (relative to tetO2 = 1); higher = stronger repression. Particulars: E. coli. In a few lines: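 Three independent transformations of E. coli SIG10-MAX were made with a low-copy plasmid library randomizing eight operator positions between a constitutive promoter and sfGFP, with constitutive TetR. Following 5 h at 37 °C in LB plus 50 µg/mL chloramphenicol, 10^6 cells went through FACS into 13 fluorescence bins, and each bin was sequenced by Illumina. Repression strength was defined as the top bin index plus one minus the read-weighted mean bin, divided by the unaltered operator's value. Averages included only members reaching ≥30 reads in all replicates with a CV ≤0.5.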
Chain of UniProt P04483 (P04483 whole entry): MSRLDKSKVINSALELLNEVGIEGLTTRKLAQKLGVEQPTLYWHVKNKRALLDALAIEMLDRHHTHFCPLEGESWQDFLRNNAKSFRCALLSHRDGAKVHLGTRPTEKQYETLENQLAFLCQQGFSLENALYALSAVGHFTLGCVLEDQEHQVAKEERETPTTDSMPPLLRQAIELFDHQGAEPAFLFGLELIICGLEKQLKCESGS
In turn, TCCCGCCTAGTTGCTGAGA gave a TetR repression strength of 0.316.
TCCCAGCTAGTGCCGGAGA gave a TetR repression strength of 0.458.
As to TCCCCGATAGTGCTAGAGA, the TetR repression strength is 0.311.
Sequence TCCCAGGTAGTTTTCGAGA came in with a TetR repression strength of 0.358.
Consider TCCCGTCAAGTCCTCGAGA, for which the TetR repression strength was found to be 0.312.
TCCCGCGAAGTGTTCGAGA: the TetR repression strength turned out to be 0.0749.
TCCCACGGAGTCGCCGAGA: the TetR repression strength amounted to 0.333.
TCCCGTTTAGTGGTTGAGA: the TetR repression strength stood at 0.0905.
TCCCTGAGAGTGGGCGAGA: the TetR repression strength was found to be 0.261.
With TCCCGGGCAGTCATTGAGA the figure was 0.24; with TCCCTTAGAGTGTACGAGA, 0.314; with TCCCGCGTAGTGGTGGAGA, 0.256.
Take TCCCACTGAGTGATAGAGA: the TetR repression strength amounted to 0.551.
The same measure for TCCCACGGAGTAGTGGAGA: 0.173.
With TCCCGCAAAGTGGAAGAGA, the TetR repression strength was found to be 0.281.
The sequence TCCCAATCAGTGGTAGAGA showed a TetR repression strength of 0.521.
Consider TCCCTGAGAGTCTTCGAGA, for which the TetR repression strength is 0.191.
As for TCCCAGACAGTTAGGGAGA, the TetR repression strength turned out to be 0.2.
In the case of TCCCGAATAGTAAGCGAGA, the TetR repression strength came to 0.525.
Turning to TCCCAGTTAGTCAGGGAGA, the TetR repression strength was 0.497.
TCCCTGTAAGTATTGGAGA displayed a TetR repression strength of 0.125.
The same measure for TCCCTGGGAGTGACAGAGA: 0.299; for TCCCGGTCAGTCGAGGAGA: 0.109; for TCCCCCGCAGTATACGAGA: 0.376.
With TCCCATACAGTCAGGGAGA the figure was 0.207.
For the sequence TCCCGCGGAGTAGGCGAGA, the TetR repression strength was 0.108.
TCCCTATAAGTTGGTGAGA: the TetR repression strength stood at 0.207.
TCCCGTATAGTCAAGGAGA registered a TetR repression strength of 0.436.
With TCCCGCACAGTGGGCGAGA the figure was 0.3; with TCCCCGTTAGTGGCTGAGA, 0.238; with TCCCTCTTAGTATGTGAGA, 0.207.
With TCCCGGTGAGTTCAGGAGA the figure was 0.0518; with TCCCTTGAAGTTCGTGAGA, 0.195.
As for TCCCCTCAAGTGATCGAGA, the TetR repression strength came to 0.387.
For the sequence TCCCAGCGAGTGTTAGAGA, the TetR repression strength is 0.305.
With TCCCGCCAAGTCCGGGAGA, the TetR repression strength is 0.21.
The same measure for TCCCGGTCAGTGTTTGAGA: 0.61.
With TCCCGACGAGTACTGGAGA the figure was 0.259; with TCCCTGTTAGTGGATGAGA, 0.117; with TCCCTATCAGTGGCAGAGA, 0.771.
For TCCCTGGGAGTGGCTGAGA, the TetR repression strength stood at 0.289.
As for TCCCAGTGAGTGGGTGAGA, the TetR repression strength turned out to be 0.468.
Sequence TCCCAGTCAGTCCCAGAGA registered a TetR repression strength of 0.365.
As to TCCCACGGAGTGAATGAGA, the TetR repression strength is 0.33.
With TCCCAGCTAGTGAGGGAGA the figure was 0.178; with TCCCAGTCAGTCACCGAGA, 0.333.
The same measure for TCCCTAGGAGTCCCTGAGA: 0.267; for TCCCGAAGAGTAACAGAGA: 0.0646.
In the case of TCCCTGTCAGTTGATGAGA, the TetR repression strength worked out at 0.536.
In turn, TCCCAATTAGTGAAGGAGA registered a TetR repression strength of 0.196.
TCCCGGGAAGTGCAGGAGA returned a TetR repression strength of 0.333.
Regarding TCCCCGGCAGTTGGAGAGA, the TetR repression strength was 0.0158.
In the case of TCCCGTATAGTTGACGAGA, the TetR repression strength was 0.0609.
In turn, TCCCTGATAGTTTGCGAGA yielded a TetR repression strength of 0.215.
The same measure for TCCCAATGAGTACTCGAGA: 0.379.
For TCCCGAGGAGTAGAGGAGA, the TetR repression strength came out at 0.411.
Consider TCCCAGGTAGTGTTTGAGA, for which the TetR repression strength turned out to be 0.24.
TCCCGACCAGTGGCCGAGA showed a TetR repression strength of 0.167.
TCCCGTGGAGTAGAAGAGA yielded a TetR repression strength of 0.308.
TCCCGGTGAGTCCGGGAGA came in with a TetR repression strength of 0.18.
With TCCCCGTTAGTGTGGGAGA the figure was 0.259; with TCCCCTTAAGTCGAGGAGA, 0.157.
With TCCCCTAGAGTTCACGAGA the figure was 0.159; with TCCCCTTGAGTATCAGAGA, 0.207.
In turn, TCCCTTAAAGTCCAAGAGA displayed a TetR repression strength of 0.306.
TCCCAGCGAGTGGGCGAGA came in with a TetR repression strength of 0.124.
On to TCCCATATAGTTCTGGAGA, for which the TetR repression strength stood at 0.197.
Regarding TCCCAAACAGTATCAGAGA, the TetR repression strength turned out to be 0.622.
In the case of TCCCGGGTAGTGGGTGAGA, the TetR repression strength is 0.2.
In turn, TCCCGTGGAGTCTACGAGA gave a TetR repression strength of 0.102.
With TCCCCGACAGTGAAGGAGA the figure was 0.0546.
As for TCCCTATTAGTTGGTGAGA, the TetR repression strength was found to be 0.637.
In the case of TCCCTACAAGTTTACGAGA, the TetR repression strength stood at 0.276.
As to TCCCCGCGAGTGGTCGAGA, the TetR repression strength was 0.467.
The same measure for TCCCACGGAGTAGCCGAGA: 0.172; for TCCCGGGCAGTTTAGGAGA: 0.0549; for TCCCTATTAGTACGTGAGA: 0.177.
The same measure for TCCCAGTTAGTCCTTGAGA: 0.292; for TCCCGTGGAGTGCAAGAGA: 0.377.
For the sequence TCCCGTGGAGTGGCAGAGA, the TetR repression strength turned out to be 0.246.
Take TCCCAGATAGTTGCCGAGA: the TetR repression strength worked out at 0.166.
The same measure for TCCCCAAGAGTCAGGGAGA: 0.194; for TCCCGTATAGTAATTGAGA: 0.0979; for TCCCTGGGAGTGTCAGAGA: 0.167.
With TCCCAAGTAGTATTCGAGA the figure was 0.242; with TCCCTTCTAGTCATAGAGA, 0.371.
Sequence TCCCCGGTAGTCAGTGAGA gave a TetR repression strength of 0.49.
For TCCCTTGGAGTTCGTGAGA, the TetR repression strength is 0.565.
For the sequence TCCCCATGAGTAATTGAGA, the TetR repression strength is 0.334.
In turn, TCCCACACAGTTAGGGAGA yielded a TetR repression strength of 0.284.
The same measure for TCCCGCTAAGTGATAGAGA: 0.69.
Sequence TCCCGCGGAGTACGGGAGA yielded a TetR repression strength of 0.104.
As for TCCCAACAAGTGGGTGAGA, the TetR repression strength turned out to be 0.389.
Consider TCCCCATTAGTGGTTGAGA, for which the TetR repression strength came to 0.0555.
In turn, TCCCCTTAAGTGTAGGAGA yielded a TetR repression strength of 0.206.
As for TCCCTAGTAGTGGACGAGA, the TetR repression strength came out at 0.415.
TCCCGTTGAGTATGTGAGA had a TetR repression strength of 0.181.
TCCCGGTCAGTCCAGGAGA showed a TetR repression strength of 0.238.
In turn, TCCCCCTGAGTTGTGGAGA registered a TetR repression strength of 0.355.
In the case of TCCCGGGAAGTTGTGGAGA, the TetR repression strength amounted to 1.1.
TCCCACTTAGTCAGCGAGA registered a TetR repression strength of 0.273.
Consider TCCCCGCTAGTCATTGAGA, for which the TetR repression strength worked out at 0.236.
